Data as given in article PMC3287010, “Pharmacokinetic Study of Di-Phenyl-Di-(2,4-Difluobenzohydroxamato)Tin(IV): Novel Metal-Based Complex with Promising Antitumor Potential” (Bioinorganic Chemistry and Applications, 2012).
Not every entry of the source has a single result; some have several. This is not the full list of results. There may be further records. Values that stand side by side seem to repeat one measurement on other runs, samples or individuals.

Test: Pharmacokinetic study in rats after single intravenous administration (HPLC-UV plasma determination, two-compartment model, 3p97 software)
Type: in vivo, Wistar albino rats
Design: unit not given here
Conditions: i.v., mean ± SD, n = 6
Method: Laboratory bred adult Wistar albino rats (200–250 g), which were supplied by the Animal Research Center at Shanxi Medical University (Taiyuan, Shanxi Province, China), were housed at 25 ± 2°C in a well-ventilated animal house under 12 : 12 h light dark cycle. The animals drank sterilized drinking water, and standard chow diet was supplied ad libitum to each cage. The animal experiments were performed in accordance with the ARVO Statement for the Use of Animals in Ophthalmic and Vision Research and were approved by the Animal Ethics Committee of Shanxi Medical University.
HPLC analysis was carried out using a Waters 2695 HPLC system (Waters Associates, Milford, MA) which consisted of a photodiode array detector, an autosampler, and a degasser. The apparatus was interfaced to a DELL PC compatible computer using Empower Pro software for data acquisition. The sensitivity was 0.2 AUFS. The autosampler was cooled to 10°C. The column was maintained at room temperature. Chromatographic separation of DPDFT and the I.S. was achieved on a Diamonsil C18 column (250 mm × 4.6 mm, 5 μm) from Dikma Technologies (Beijing, China) protected by a SHIMADZU LC guard column at 25°C. The mobile phase for HPLC analysis consisted of phosphoric acid in water (solvent A)/methanol (solvent B) (30 : 70, V/V, pH 3.0) with a flow rate of 0.8 mL·min^−1. A sample volume of 20 μL was injected. Prior to use, the mobile phase was filtered through a 0.45 μm hydrophilic membrane filter. The photodiode array detector was set at a wavelength of 228 nm at room temperature. […]
Blood samples collected from rat blood plasma were immediately transferred to 1.5 mL heparinized microcentrifuge tubes from fossa orbitalis of rats, and then processed for plasma by centrifugation. […] All harvested samples stored at −4°C were brought to room temperature before use and analyzed within one week. […]

O=C(N[O][Sn]([O]NC(=O)c1ccc(F)cc1F)([c]1ccccc1)[c]1ccccc1)c1ccc(F)cc1F [DPDFT, Di-phenyl-di-(2,4-difluobenzohydroxamato)tin(IV)]
AUC (7.5 mg·kg^−1 (low)): 7.56 ± 1.02 [table] and 7.56 [text]
AUC (15 mg·kg^−1 (middle)): 37.15 ± 3.06 [table] and 37.15 [text]
AUC (30 mg·kg^−1 (high)): 81.25 ± 15.3 [table] and 81.25 [text]
